Reference: PubChem BioAssay AID485364 (National Center for Advancing Translational Sciences (NCATS), 2010)
Screen size: about 360,000 compounds; about 11,000 (3.1%) were called active. This list was built around the results that the source calls inconclusive (neither active nor inactive); the mix of calls is not that of the screen. The call rests on the fitted dose curve; in most records, active means well fitted inhibition curve with a large enough effect; inconclusive means small, poorly fitted or top-dose-only effect; inactive means no such curve, though single readings can be large or run the other way. Potencies of inconclusive entries are left out as doubtful fits.

Molecular target: Schistosoma mansoni thioredoxin glutathione reductase (TGR) (UniProt Q962Y6)
Experiment: qHTS Assay for the Inhibitors of Schistosoma Mansoni Peroxiredoxins; further: nearly all actives have a fitted effect of over 60% in size
Conditions: purified TGR, DTNB reduction, TNB absorbance 405 nm; series mostly up to 114 µM
In short: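 First, TGR (20 nM dispensed) and NADPH were mixed with compound. Second, a 15 min room-temperature incubation followed. Third, further NADPH and then DTNB were added to start the reaction. Finally, TNB absorbance was monitored kinetically.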
Potency means the concentration at half of the fitted maximal effect; tags describe the fitted curve by direction and shape.

SMILES	Potency
COc1cc2[nH]c(=S)n(NC(=O)CC(C)C)c(=O)c2cc1OC	inactive
CCc1ccc(N2CC(C(=O)N/N=C/c3ccccc3OC)CC2=O)cc1 (configuration not stated)	inactive
Cc1ccc(C2=NOC(=O)/C2=C\C=C\c2ccccc2)cc1	inconclusive [inhibitor, full curve]
O=C(CCC(=O)c1ccc(F)cc1)OCc1nnc(-c2ccc([N+](=O)[O-])cc2)o1	active: 20 µM
Cc1ccc(CN2CCS(=O)(=O)CC2)o1	inconclusive [inhibitor, partial curve]
COc1ccc(NC(=S)NC(=O)c2cccnc2)cc1	active: 22.4 µM
Cc1cc2oc(=O)c(CC(=O)NCCCN(C)C)c(C)c2c2occ(C(C)(C)C)c12	inconclusive [inhibitor, partial curve]
CCOC(=O)CNC(=O)c1ccc2[nH]c3c(c2c1)CCCC3	inconclusive [inhibitor, single point]
CCOc1ccc2nc(CN3CCN(Cc4ccccc4OCC)C(CCO)C3)ccc2c1 (configuration not stated)	inconclusive [inhibitor, single point]
CCCCn1c(SCC(=O)NCc2ccco2)nc2cc(S(N)(=O)=O)ccc21	active: 50.1 µM
CCC(=O)N1CCN(CCN=CC2=C(O)CC(C)(C)CC2=O)CC1	active: 44.7 µM
O=C1C(=O)N(CCN2CCOCC2)C(c2ccc(Cl)c(Cl)c2)/C1=C(/O)c1ccc2c(c1)OCO2 (configuration not stated)	inconclusive [inhibitor, partial curve]
COc1ccc(CN2C(=O)c3cccnc3C2=O)cc1S(=O)(=O)NCc1ccc(C)o1	inconclusive [inhibitor, partial curve]
COc1ccc(/C=N/Nc2nc(Nc3ccccc3)nc(N3CCCCC3)n2)c(OC)c1	inactive
CN1CCN(Cc2coc3c(Cl)cc(Cl)cc3c2=O)CC1	inconclusive [inhibitor, partial curve]
COc1cccc(NS(=O)(=O)NC(=O)c2c[nH]c3ccccc23)c1	inactive
CCCN(CCC)C(=O)CC(c1ccccc1)c1ccco1 (configuration not stated)	active: 14.1 µM
COc1cc(CNc2nnnn2C)cc(OC)c1OC	inactive
CCN1CCN(S(=O)(=O)c2ccc(Cl)c(C(=O)NC3CC3)c2)CC1	inconclusive [inhibitor, partial curve, poor fit]
O=C(NNc1cccc([N+](=O)[O-])c1)/C(=C\c1cccnc1)NC(=O)c1ccccc1	inconclusive [inhibitor, partial curve]
O=C(CCN1CCN(Cc2ccccc2)CC1)NNC(=O)Nc1cccc(C(F)(F)F)c1	inconclusive [inhibitor, full curve, poor fit]
Cc1noc(NS(=O)(=O)c2ccc(NC(=O)c3ccoc3C)cc2)c1C	inconclusive [inhibitor, partial curve]
Nc1nnc(Sc2ncccc2[N+](=O)[O-])s1	inconclusive [inhibitor, partial curve]
O=C1CN(C(=O)c2ccc(Br)o2)C(c2ccccc2)c2cc(F)ccc2N1 (configuration not stated)	inconclusive [inhibitor, single point]

SMILES	Potency
O=C(CC1C(=O)NCCN1Cc1ccc(Cl)c(F)c1)NC1CCC1 (configuration not stated)	active: 39.8 µM
O=C(NCC(=O)N(c1ccc2c(c1)OCO2)C(C(=O)NC1CCCC1)c1ccncc1)c1ccco1 (configuration not stated)	inconclusive [inhibitor, full curve]
Cc1nc(N2CCN(C(=O)c3ccco3)CC2)c2oc3ccccc3c2n1	inconclusive [inhibitor, partial curve]
C/C=C(\C)C(=O)Nc1cccc(C2=NOC3(C2)C[C@@H](C(N)=O)N(C(=O)c2cc([N+](=O)[O-])cc([N+](=O)[O-])c2C)C3)c1 (some centres not stated)	inconclusive [inhibitor, partial curve]
Cc1cc(NCCCN2CCOCC2)n2c(nc3ccccc32)c1C#N	inconclusive [inhibitor, full curve, poor fit]
CC1=CCC2C(=O)N(c3cccc(C(=O)Nc4ccccc4Cl)c3)C(=O)C2C1 (configuration not stated)	inconclusive [inhibitor, partial curve]
Cn1c(CCNC(=O)c2ccccc2)nc2cc(NC(=O)c3ccco3)ccc21	inconclusive [inhibitor, partial curve]
Nc1nc(Nc2ccccc2)nc(NCc2ccccc2)c1[N+](=O)[O-]	inactive
C(#CCN1CCCCC1)COCc1ccccc1	inconclusive [inhibitor, partial curve]
C=CCOc1ccccc1CN(C(=O)CCl)c1ccc2c(c1)OCO2	active: 8.91 µM
CCC(=O)N1CCc2cc(Br)cc(S(=O)(=O)CCC(=O)NCCc3ccc(C)cc3)c21	inconclusive [inhibitor, full curve]
O=C(CSc1nc(=O)n2cc(Cl)ccc2n1)Nc1cccc2ccccc12	inconclusive [inhibitor, single point]
O=C(Cc1ccc(Cl)cc1)N1CCN(C(=O)c2ccco2)CC1	inconclusive [inhibitor, full curve, poor fit]
COc1cc2[nH]c(=S)nc(NCCc3ccc(S(N)(=O)=O)cc3)c2cc1OC	active: 14.1 µM
CCSc1ncnc2c1sc1nc(-c3ccco3)c3c(c12)CC(C)(C)OC3	inconclusive [inhibitor, full curve, poor fit]
O=C(/C=C1\C(=O)Nc2ccccc21)/C=C1\C(=O)Nc2ccccc21	active: 12.6 µM
O=C(CC1C(=O)NCCN1Cc1ccccc1C(F)(F)F)NCCN1CCOCC1 (configuration not stated)	inconclusive [inhibitor, partial curve]
CCc1c(C(=O)NCc2ccccc2Cl)[nH]c(C)c1C(C)=O	inactive
CNC(=O)c1c(NC(=O)c2ccco2)sc2c1CCC2	active: 31.6 µM
Cc1ccc(S(=O)(=O)c2nc(-c3ccco3)oc2NCC2CCCO2)cc1 (configuration not stated)	active: 8.91 µM
c1ccc2c(c1)NCC1CCCN21 (configuration not stated)	active: 31.6 µM
c1cncc(-c2nnc(C3CCCCC3)o2)c1	inconclusive [inhibitor, single point]
Cn1c(=O)c2c(=O)cc(N)[nH]c2n(C)c1=O	inconclusive [inhibitor, partial curve]
CC(C)CC(=O)NC(=S)Nc1ccc(NC(=O)c2ccco2)cc1	inconclusive [inhibitor, full curve, poor fit]

SMILES	Potency
C/C(=N\N=C(/N)SC1CC(=O)N(c2ccc(Cl)cc2)C1=O)c1cccs1 (configuration not stated)	inconclusive [inhibitor, partial curve]
CCN(CC(O)COCc1ccc(Cl)cc1)C1CCCCC1 (configuration not stated)	inactive
CC1NC(=O)NC1CCCCCC(=O)NCCc1ccccc1 (configuration not stated)	active: 31.6 µM
O=C(Cc1ccccc1)Nc1ccc(NC(=O)Cc2ccccc2)c(Cl)c1	inactive
COc1cccc(=O)c2c(C)n(-c3ccc(C(=O)O)cc3)c(C)c12	inconclusive [inhibitor, full curve, poor fit]
N#C/C(=C(/O)c1cccc(F)c1)c1nc2ccccc2s1	inactive
COc1ccc(Cn2c(C)ccc2C)cc1	active: 31.6 µM
c1ccc2oc(C3=NNC(=NC4CC4)SC3)cc2c1	inconclusive [inhibitor, single point]
O=C(COc1ccccc1C(=O)N/N=C\c1ccc(O)c(O)c1)N/N=C/c1ccc(O)c(O)c1	inconclusive [inhibitor, full curve, poor fit]
N#CC(C#N)=Cc1cc2ccccc2nc1N1CCOCC1	active: 7.08 µM
C=CCn1c(SCC(=O)Nc2nc(C)cs2)nnc1C(C)NC(=O)c1ccccc1Cl (configuration not stated)	inactive
COc1ccc(N2CCN(C(=O)c3cc4cc5ccc(Cl)cc5nc4o3)CC2)cc1	inconclusive [inhibitor, single point]
CCn1c(SCC(=O)Nc2cc(C)on2)nnc1-c1cccs1	inconclusive [inhibitor, single point]
COc1ccc(-c2c(-c3ccccc3OC)sc3ccccc23)cc1C=O	inconclusive [inhibitor, partial curve]
COc1ccc(C(=O)CN2CCN(S(=O)(=O)c3cccc([N+](=O)[O-])c3)CC2)cc1	inconclusive [inhibitor, partial curve]
COc1cc(CNc2ccc(S(N)(=O)=O)cc2)ccc1OCC(=O)NC1CCCCC1	inactive
Cc1ccc(S(=O)(=O)Nc2cc(C(C(=O)OC(C)C)C(=O)C(F)(F)F)c(O)c3ccccc23)c(C)c1 (configuration not stated)	inactive
N#CC(C#N)=NNc1ccc(S(=O)(=O)N2CCCC2)cc1	active: 20 µM
CC(=O)c1ccc(NC(=S)Nc2cccc(Cl)c2C)cc1	active: 35.5 µM
Nc1c(C(=O)N/N=C/c2cccnc2)oc2nc(-c3ccccc3)cc(-c3ccco3)c12	inconclusive [inhibitor, partial curve]
CCOC(=O)c1c(C)[nH]c(C)c1S(=O)(=O)N1CCN(c2ccc([N+](=O)[O-])cc2)CC1	inactive
CCOC(=O)c1ccc(N2C(=O)CC(N3CCC(O)(c4ccc(Br)cc4)CC3)C2=O)cc1 (configuration not stated)	active: 50.1 µM
COc1ccc(CNCCCSc2nnnn2C)c(OC)c1	inconclusive [inhibitor, single point]
O=C1CSC2=NCN(c3ccccc3)CN12	inconclusive [inhibitor, single point]
